From the RNAGym collection of RNA variant scans (doi:10.1093/nar/gkz1192)
The source gives no read counts; variants with many changes may rest on few reads.

B1: CPEB3 Ribozyme (parent)
chain: UAACAGGGGGCCACAGCAGAAGCGUUCACGUCGCAGCCCCUGUCAGAUUCUGGUGAAUCUGCGAAUUCUGCUGUAUAUCUC

Variants of: B1
Test: self-cleavage, relative activity (ratio to wild type); higher = more cleavage; in vitro, sequencing
Outline: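 Barcoded CPEB3 ribozyme mutants, produced by rounds of error-prone PCR, self-cleaved while being transcribed with T7 RNA polymerase for 5 hours at 37°C and during a subsequent 15 min DNase I step before EDTA was added. Sequencing of template-switched cDNA on Illumina gave cleaved and total reads, and DNA sequencing assigned barcodes to variants. Each variant's relative activity is its cleaved/total read fraction divided by the unmutated ribozyme's fraction, averaged across three batches. A variant needed a minimum of 5 reads.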
For U43G U72A U78C, the self-cleavage was 0.13. Work on G42A U54C U60C yielded a self-cleavage of 0.15. A45G U51C G63A gave a self-cleavage of 0.44. U43A A45U A47G A57G showed a self-cleavage of 0.15. Work on U43C A45G U74C yielded a self-cleavage of 0.8. With A45G U48C U60A C81U the self-cleavage was 0.24. Work on A45G U49C U74C yielded a self-cleavage of 0.41. Work on A45G A47U U48C yielded a self-cleavage of 0.4. With U43C U51C G52C U60C A64U A75G the self-cleavage was 0.18. A45G A57G G70U gave a self-cleavage of 0.23. Variant U43A A45U U80G has a self-cleavage of 1.13. Variant U43C U48A U66A has a self-cleavage of 0.35. Variant A45G C62U U69A has a self-cleavage of 0. G42A C68U U72C gave a self-cleavage of 0.15. C44G U51C U54A gave a self-cleavage of 0.46. Work on A45C C62A A64G A75G yielded a self-cleavage of 0.1. In the case of U43C A45G A77C, the self-cleavage is reported as 0.2. Work on U43C A45G A77G yielded a self-cleavage of 0.46. Work on U43C U60A U80C yielded a self-cleavage of 0.15. Variant G42U U43C U51C G53A U60A U74C U80C has a self-cleavage of 0.19. Variant U43C U51A A64G has a self-cleavage of 0.4. With U43C A47G U54A A56U the self-cleavage was 0.38. In the case of G42U U43A A56U, the self-cleavage is reported as 0.09. With U43C U49C U67C U78A the self-cleavage was 0.04. In the case of U43C A47G C71A, the self-cleavage is reported as 0.27. G42A U66C U69C U78C gave a self-cleavage of 0.06. U43C U51C U67A U72C showed a self-cleavage of 0.32. With U43C U60C U69A U80C the self-cleavage was 0.15. U43C U48C U54C A77U C79U gave a self-cleavage of 0.2. For A45G U51A G55C A57G, the self-cleavage was 0.23. Variant U43C A64U U80G has a self-cleavage of 0.16. Variant A45G A47U U60C has a self-cleavage of 1.05. With C44U A45G U76C the self-cleavage was 0.35. Variant U43C A56U U60C U78G has a self-cleavage of 0.06. For U43C U72C U78C, the self-cleavage was 0.9. U43C U49G A64U gave a self-cleavage of 0.19. A45G G53A U69C gave a self-cleavage of 0.6. U43C U60C U66C U69A U76C gave a self-cleavage of 0.1. U43C A47G G63U A64G showed a self-cleavage of 0.61. Work on A45G G73A A75G yielded a self-cleavage of 0.99. For A45G U51C A65G U72C A75G U76C, the self-cleavage was 0.37. U43A U72C U76A U80C gave a self-cleavage of 1.29. U43A U58C A64U showed a self-cleavage of 0.49. For U43G U69G U72A, the self-cleavage was 0.15. Work on A45G U49C U76A yielded a self-cleavage of 0.26. Work on A45G U49C U76C yielded a self-cleavage of 0.12. A45G G52A U54G A64G showed a self-cleavage of 0.17. Variant A45G A57G A64C has a self-cleavage of 0.34. U43C U49A U54C gave a self-cleavage of 0.21. With G42C U72C U78G the self-cleavage was 0.25. Variant A45C A56G U80C has a self-cleavage of 0.38. Variant C44U U48C U54C has a self-cleavage of 0.19. Work on A45G U51C U54A U72C yielded a self-cleavage of 0.51. U43A A56G A64C gave a self-cleavage of 0.37. U43C A47G U54G U67C U78G gave a self-cleavage of 0.31. A45G A56U U67A showed a self-cleavage of 0.28. U43A U51A A65G showed a self-cleavage of 0.47. U43A U51A A65U showed a self-cleavage of 0.12. For A45C A65G U67C U80C, the self-cleavage was 0.35. U43C A45G U80G gave a self-cleavage of 0.63. In the case of A45C U54C C62U, the self-cleavage is reported as 0.1. Variant U43A U48C U67C has a self-cleavage of 0.3. For U43C A45U A57G U60C U78C, the self-cleavage was 0.04. G42A U43C U51C U67C gave a self-cleavage of 0.29. U43C G55U A56U A64U U74C showed a self-cleavage of 0.1. For U43C A56G A57U, the self-cleavage was 0.07. In the case of U43C U67C U76A, the self-cleavage is reported as 0.23. U43C A47G U60A C62U A64C showed a self-cleavage of 0.16. For U43G U48C U58C U60A, the self-cleavage was 0.18. In the case of U43C G53A C62U A65G, the self-cleavage is reported as 0.22. U43C U49C U51A G70C gave a self-cleavage of 0.13. With A45G U51A U67C the self-cleavage was 0.28. U43A U54A A65G showed a self-cleavage of 0.74. Work on A45G A64G U69A yielded a self-cleavage of 0.31. With A45G C68A A77U the self-cleavage was 0.27. With U43A A57G G63U A64U U72C the self-cleavage was 0.32. With U43C A45U A47G C50A U67A the self-cleavage was 0.15. With U43A U72C U80C the self-cleavage was 1.19. With U43C A47G U69C U76A U80C the self-cleavage was 0.16. With U43C A47G A64C the self-cleavage was 0.21. Variant U43C U69C U76G U78C has a self-cleavage of 0.13. U43A U48C U54C U66A showed a self-cleavage of 0.18. For A45G A64U U72C, the self-cleavage was 0.34. Work on U43C A47G U49C yielded a self-cleavage of 0.08. With A45G U48C U58A U60C C62U U80C the self-cleavage was 0.16. U43C A56G U67C U72C gave a self-cleavage of 0.16. In the case of U43C A45G U48C A57G, the self-cleavage is reported as 0.68. For A45G U51A A57G, the self-cleavage was 0.35. A45G U49A U69C showed a self-cleavage of 0.3. A45G A56U U66C showed a self-cleavage of 0.21. In the case of U43C U54C U78C U80C, the self-cleavage is reported as 0.31. Variant U43C A45U U60A A77U U80C has a self-cleavage of 0.97. U43A U60A U72C gave a self-cleavage of 1.1. In the case of U43C A64G U72C U76A, the self-cleavage is reported as 0.67. In the case of U43C U49C U51A U69A, the self-cleavage is reported as 0.23. U43C A45U U69G gave a self-cleavage of 0.08. For G42C U60G A64G U66C U69G A75G, the self-cleavage was 0. U43A U49A G52U A56U C62U gave a self-cleavage of 0.09. Variant U43C U66A U72A has a self-cleavage of 0.09. Work on U43A U72C U74C U80C yielded a self-cleavage of 1.26. For U43C U49A U76C U78C, the self-cleavage was 0.1. Variant A45G U49A C50U has a self-cleavage of 0.46. Work on C44U A45G U49C A64U A75G yielded a self-cleavage of 0.05. Work on A45G U49G A75U yielded a self-cleavage of 0.24. For U43A U49C U51C A65G U69A, the self-cleavage was 0.29. U43C U69A A75G showed a self-cleavage of 0.22. For G42A U60A U69A, the self-cleavage was 0.13. With U43C A75U U80C the self-cleavage was 0.79. U43G A56U U67C U72A showed a self-cleavage of 0.08. For U43A C59U A64U U72C A75G, the self-cleavage was 0.32. Variant U43A U67C U74C has a self-cleavage of 0.45. C44U U51C A56G U58A showed a self-cleavage of 0.19. Work on U43C A56U U69A yielded a self-cleavage of 0.17. U43A U54A A64G U67A showed a self-cleavage of 0.43. Work on U43A A64U U67A yielded a self-cleavage of 0.25. U43C U60A U69C U78C gave a self-cleavage of 0.09. U43G U51C A64U U74C showed a self-cleavage of 0.43. With A45G U49A U60A U72A the self-cleavage was 0.16. For U43C C50A U58A U67A, the self-cleavage was 0.13. With A45G A56G U78A the self-cleavage was 0.69. Variant U43C A45U G55A has a self-cleavage of 0.24. In the case of U43C C50G U58C, the self-cleavage is reported as 0.11. With U43A U48C A64G the self-cleavage was 0.52. For A45G A64U C79A, the self-cleavage was 0.28. For U43C U54C U66C U67C, the self-cleavage was 0.13. Work on A45G U51C A56U yielded a self-cleavage of 0.26. For U43C A45U A47C A57G U66C U78A, the self-cleavage was 0.06. For C44U A56U U60A, the self-cleavage was 0.13. A45G A57G U69A gave a self-cleavage of 0.26. Work on A45G A77U U78C yielded a self-cleavage of 0.93. With A45G U49C U51C G61A U74A the self-cleavage was 0.21. A45G U48C U49C A56U gave a self-cleavage of 0.82. In the case of U43C U51C A56G U60C, the self-cleavage is reported as 0.12. Variant A45G G52A U67A has a self-cleavage of 0.36. With U43A C62A U76A the self-cleavage was 1.07. For G42U U51A U60A, the self-cleavage was 0.7. For U43C A56C U80C, the self-cleavage was 0.28. In the case of U43A A64U U78G, the self-cleavage is reported as 0.51. Work on U43A A47G A56G U78A yielded a self-cleavage of 0.49. Work on U43A U54C U67G U74C C81G yielded a self-cleavage of 0.58. A45C U69A U72C U76C gave a self-cleavage of 0.14. With U43A A56G U78C the self-cleavage was 0.86. Work on U43G A64U U80C yielded a self-cleavage of 0.19. Work on A45G A47U U58C yielded a self-cleavage of 0.23. For U43C A45U U60A A64G U69A U72A, the self-cleavage was 0.07. With A45G U51C U67A U69A the self-cleavage was 0.41. With U43A C50U A56U the self-cleavage was 0.97. Variant U43C U49C U51C A56U has a self-cleavage of 0.15. A45G A57U U66C gave a self-cleavage of 0.23. In the case of U43A A56U C71A, the self-cleavage is reported as 0.51. U43C U60C C62G U66C gave a self-cleavage of 0.23. In the case of U43C A45C A56G U60C U69C, the self-cleavage is reported as 0.26. A45G A57G C59U U72C showed a self-cleavage of 0.23. Variant U43C U51A A56G U60A U80C has a self-cleavage of 0.11. Work on A45G A57G U80C yielded a self-cleavage of 0.57. With U43A G52U U60A the self-cleavage was 0.8. For U43C G73U U76A, the self-cleavage was 0.68. In the case of U43C A45G A57G, the self-cleavage is reported as 0.33. Work on U43C U51A U60A yielded a self-cleavage of 0.32. A45G A47G U54C U60A A64G showed a self-cleavage of 0.13. With U43C G52C U58C U69C the self-cleavage was 0.17. U43C U66C U72C showed a self-cleavage of 0.18. For U43A U60A A65G, the self-cleavage was 0.53. With U43C U51A U54C the self-cleavage was 0.27. In the case of U43C A64G U72C U78G, the self-cleavage is reported as 0.64. For U43C U49A A56G A64U, the self-cleavage was 0.1. With A45G U51C U67A the self-cleavage was 0.36.
